This note sets out measurements from article PMC9462884, “Tensin3 interaction with talin drives the formation of fibronectin-associated fibrillar adhesions” (The Journal of Cell Biology, 2022).

Amino acid sequences for entries named in this document (tags omitted).
UniProt Q05397: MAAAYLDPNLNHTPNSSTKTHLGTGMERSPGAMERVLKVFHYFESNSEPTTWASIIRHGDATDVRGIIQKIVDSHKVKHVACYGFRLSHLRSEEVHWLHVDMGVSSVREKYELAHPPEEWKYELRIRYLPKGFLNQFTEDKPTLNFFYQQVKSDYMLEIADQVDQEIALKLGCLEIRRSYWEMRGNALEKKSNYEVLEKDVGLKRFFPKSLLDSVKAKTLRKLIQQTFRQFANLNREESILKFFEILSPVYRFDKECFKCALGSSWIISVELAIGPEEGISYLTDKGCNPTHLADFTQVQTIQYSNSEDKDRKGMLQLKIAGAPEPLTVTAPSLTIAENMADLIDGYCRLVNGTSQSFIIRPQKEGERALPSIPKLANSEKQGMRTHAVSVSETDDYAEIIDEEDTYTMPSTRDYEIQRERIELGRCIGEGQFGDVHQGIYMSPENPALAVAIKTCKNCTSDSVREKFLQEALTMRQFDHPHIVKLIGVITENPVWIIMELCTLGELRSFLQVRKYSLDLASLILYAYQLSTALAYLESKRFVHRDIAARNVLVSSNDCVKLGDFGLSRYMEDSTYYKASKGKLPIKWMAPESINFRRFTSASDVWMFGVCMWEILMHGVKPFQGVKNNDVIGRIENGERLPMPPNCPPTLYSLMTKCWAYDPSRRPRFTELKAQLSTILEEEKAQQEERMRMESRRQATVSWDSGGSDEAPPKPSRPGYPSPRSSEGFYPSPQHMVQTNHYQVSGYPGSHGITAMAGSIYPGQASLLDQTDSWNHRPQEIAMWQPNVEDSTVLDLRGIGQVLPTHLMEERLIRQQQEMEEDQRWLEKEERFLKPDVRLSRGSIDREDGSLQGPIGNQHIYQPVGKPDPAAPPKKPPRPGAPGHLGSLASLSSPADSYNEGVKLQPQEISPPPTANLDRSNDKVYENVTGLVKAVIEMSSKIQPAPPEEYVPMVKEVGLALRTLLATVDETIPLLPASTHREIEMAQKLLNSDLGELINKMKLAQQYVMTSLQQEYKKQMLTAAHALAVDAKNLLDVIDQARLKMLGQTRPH
UniProt Q13418: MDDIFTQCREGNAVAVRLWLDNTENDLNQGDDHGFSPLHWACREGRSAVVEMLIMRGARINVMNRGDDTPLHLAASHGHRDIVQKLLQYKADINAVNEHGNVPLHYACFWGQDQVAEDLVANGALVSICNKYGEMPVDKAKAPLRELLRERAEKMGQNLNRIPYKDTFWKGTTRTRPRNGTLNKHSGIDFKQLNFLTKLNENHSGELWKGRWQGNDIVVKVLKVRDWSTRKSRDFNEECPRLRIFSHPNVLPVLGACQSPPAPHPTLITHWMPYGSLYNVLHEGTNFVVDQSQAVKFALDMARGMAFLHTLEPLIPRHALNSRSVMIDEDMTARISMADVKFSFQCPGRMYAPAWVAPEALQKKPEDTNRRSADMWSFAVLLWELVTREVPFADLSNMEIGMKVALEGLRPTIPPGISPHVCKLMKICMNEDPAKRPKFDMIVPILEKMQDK
UniProt P49023: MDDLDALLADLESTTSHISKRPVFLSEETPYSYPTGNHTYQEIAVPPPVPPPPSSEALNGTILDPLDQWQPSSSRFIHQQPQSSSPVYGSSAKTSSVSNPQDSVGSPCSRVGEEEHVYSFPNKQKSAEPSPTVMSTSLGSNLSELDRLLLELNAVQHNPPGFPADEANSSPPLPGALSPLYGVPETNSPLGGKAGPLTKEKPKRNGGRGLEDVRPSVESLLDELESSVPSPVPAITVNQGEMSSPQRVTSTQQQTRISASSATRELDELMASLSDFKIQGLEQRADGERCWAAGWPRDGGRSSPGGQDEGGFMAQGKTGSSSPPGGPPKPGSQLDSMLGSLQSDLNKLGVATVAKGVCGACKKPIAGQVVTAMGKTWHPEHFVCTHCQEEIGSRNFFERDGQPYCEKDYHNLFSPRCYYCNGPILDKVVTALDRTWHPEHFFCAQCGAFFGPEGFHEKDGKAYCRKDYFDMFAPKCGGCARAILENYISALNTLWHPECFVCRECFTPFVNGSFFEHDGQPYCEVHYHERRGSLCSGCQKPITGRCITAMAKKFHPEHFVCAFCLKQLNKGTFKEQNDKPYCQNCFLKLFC
UniProt P26039: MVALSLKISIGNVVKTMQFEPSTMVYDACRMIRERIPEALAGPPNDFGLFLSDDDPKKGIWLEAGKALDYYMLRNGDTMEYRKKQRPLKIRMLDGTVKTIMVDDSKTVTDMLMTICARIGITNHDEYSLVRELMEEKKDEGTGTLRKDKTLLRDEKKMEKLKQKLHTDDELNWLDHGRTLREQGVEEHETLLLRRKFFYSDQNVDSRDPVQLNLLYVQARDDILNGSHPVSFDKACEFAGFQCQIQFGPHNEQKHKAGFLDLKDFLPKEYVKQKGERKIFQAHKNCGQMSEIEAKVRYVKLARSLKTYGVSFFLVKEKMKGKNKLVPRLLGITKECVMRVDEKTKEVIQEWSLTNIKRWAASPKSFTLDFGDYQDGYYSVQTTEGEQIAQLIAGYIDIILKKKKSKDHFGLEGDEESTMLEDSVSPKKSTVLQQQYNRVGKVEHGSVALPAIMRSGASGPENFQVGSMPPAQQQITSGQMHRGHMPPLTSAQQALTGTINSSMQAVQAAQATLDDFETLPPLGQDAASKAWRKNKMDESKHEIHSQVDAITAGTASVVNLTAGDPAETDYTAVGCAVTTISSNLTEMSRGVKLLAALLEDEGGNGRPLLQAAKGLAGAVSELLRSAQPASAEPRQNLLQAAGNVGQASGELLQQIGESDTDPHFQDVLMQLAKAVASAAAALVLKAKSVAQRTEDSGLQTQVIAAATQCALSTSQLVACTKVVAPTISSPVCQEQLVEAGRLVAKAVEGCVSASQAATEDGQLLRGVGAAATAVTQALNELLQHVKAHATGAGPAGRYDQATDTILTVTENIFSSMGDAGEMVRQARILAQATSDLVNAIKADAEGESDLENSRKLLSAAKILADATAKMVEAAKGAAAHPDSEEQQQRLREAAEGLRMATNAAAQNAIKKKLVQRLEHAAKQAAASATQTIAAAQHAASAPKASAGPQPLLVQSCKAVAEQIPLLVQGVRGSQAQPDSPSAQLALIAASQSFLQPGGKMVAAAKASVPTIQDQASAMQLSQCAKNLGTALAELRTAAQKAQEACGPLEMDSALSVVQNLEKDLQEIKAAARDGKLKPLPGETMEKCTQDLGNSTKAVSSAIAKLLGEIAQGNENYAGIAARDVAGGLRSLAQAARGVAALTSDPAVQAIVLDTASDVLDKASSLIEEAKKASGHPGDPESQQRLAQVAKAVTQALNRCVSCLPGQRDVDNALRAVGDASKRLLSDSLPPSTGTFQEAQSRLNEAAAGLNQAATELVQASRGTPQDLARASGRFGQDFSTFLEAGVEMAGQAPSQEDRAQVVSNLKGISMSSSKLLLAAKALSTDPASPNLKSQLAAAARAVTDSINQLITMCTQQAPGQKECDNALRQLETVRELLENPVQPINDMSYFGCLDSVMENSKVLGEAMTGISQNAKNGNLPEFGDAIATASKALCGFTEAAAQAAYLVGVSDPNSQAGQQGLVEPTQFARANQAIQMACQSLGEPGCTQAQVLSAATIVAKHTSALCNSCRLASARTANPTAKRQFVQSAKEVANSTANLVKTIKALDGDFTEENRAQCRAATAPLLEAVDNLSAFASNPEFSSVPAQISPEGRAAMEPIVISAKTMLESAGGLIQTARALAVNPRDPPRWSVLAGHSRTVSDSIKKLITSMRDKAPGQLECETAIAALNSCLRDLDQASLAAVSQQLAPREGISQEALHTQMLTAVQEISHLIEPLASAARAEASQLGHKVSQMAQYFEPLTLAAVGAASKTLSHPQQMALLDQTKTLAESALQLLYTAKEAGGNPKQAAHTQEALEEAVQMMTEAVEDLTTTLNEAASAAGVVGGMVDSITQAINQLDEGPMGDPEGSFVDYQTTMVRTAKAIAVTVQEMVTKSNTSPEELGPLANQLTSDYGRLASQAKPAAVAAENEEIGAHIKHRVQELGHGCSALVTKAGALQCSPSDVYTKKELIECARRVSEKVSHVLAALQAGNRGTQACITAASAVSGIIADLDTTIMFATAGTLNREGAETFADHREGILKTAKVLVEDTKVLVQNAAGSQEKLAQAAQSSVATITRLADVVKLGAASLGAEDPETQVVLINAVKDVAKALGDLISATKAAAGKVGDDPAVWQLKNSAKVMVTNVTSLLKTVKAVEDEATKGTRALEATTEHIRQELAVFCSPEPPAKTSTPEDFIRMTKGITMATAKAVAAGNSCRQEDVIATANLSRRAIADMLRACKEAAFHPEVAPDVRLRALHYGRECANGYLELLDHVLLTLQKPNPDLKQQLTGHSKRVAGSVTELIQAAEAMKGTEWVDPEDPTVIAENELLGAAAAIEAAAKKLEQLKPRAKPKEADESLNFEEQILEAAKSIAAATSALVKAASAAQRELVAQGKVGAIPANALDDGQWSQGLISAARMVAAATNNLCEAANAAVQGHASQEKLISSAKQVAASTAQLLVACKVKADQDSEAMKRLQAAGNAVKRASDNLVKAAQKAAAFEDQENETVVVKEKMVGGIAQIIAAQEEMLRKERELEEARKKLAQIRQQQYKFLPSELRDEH
UniProt Q8VI36: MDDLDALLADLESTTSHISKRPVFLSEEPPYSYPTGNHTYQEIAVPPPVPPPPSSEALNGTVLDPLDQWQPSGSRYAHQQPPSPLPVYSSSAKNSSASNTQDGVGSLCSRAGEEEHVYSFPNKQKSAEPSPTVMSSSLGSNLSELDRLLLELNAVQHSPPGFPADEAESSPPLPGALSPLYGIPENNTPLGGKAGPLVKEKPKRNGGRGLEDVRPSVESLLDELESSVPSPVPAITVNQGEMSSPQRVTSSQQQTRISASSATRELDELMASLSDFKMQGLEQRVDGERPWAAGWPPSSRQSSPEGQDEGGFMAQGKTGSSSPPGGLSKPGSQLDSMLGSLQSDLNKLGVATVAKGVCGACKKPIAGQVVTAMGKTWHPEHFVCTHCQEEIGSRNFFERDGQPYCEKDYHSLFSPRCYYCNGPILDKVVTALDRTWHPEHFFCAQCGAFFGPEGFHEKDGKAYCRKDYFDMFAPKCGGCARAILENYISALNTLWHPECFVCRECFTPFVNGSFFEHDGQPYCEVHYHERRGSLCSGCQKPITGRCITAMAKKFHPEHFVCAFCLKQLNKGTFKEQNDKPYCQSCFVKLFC

One experiment addresses T1, mCh-tensin2-cBAK (human) (UniProt Q63HR2).
T1 sequence: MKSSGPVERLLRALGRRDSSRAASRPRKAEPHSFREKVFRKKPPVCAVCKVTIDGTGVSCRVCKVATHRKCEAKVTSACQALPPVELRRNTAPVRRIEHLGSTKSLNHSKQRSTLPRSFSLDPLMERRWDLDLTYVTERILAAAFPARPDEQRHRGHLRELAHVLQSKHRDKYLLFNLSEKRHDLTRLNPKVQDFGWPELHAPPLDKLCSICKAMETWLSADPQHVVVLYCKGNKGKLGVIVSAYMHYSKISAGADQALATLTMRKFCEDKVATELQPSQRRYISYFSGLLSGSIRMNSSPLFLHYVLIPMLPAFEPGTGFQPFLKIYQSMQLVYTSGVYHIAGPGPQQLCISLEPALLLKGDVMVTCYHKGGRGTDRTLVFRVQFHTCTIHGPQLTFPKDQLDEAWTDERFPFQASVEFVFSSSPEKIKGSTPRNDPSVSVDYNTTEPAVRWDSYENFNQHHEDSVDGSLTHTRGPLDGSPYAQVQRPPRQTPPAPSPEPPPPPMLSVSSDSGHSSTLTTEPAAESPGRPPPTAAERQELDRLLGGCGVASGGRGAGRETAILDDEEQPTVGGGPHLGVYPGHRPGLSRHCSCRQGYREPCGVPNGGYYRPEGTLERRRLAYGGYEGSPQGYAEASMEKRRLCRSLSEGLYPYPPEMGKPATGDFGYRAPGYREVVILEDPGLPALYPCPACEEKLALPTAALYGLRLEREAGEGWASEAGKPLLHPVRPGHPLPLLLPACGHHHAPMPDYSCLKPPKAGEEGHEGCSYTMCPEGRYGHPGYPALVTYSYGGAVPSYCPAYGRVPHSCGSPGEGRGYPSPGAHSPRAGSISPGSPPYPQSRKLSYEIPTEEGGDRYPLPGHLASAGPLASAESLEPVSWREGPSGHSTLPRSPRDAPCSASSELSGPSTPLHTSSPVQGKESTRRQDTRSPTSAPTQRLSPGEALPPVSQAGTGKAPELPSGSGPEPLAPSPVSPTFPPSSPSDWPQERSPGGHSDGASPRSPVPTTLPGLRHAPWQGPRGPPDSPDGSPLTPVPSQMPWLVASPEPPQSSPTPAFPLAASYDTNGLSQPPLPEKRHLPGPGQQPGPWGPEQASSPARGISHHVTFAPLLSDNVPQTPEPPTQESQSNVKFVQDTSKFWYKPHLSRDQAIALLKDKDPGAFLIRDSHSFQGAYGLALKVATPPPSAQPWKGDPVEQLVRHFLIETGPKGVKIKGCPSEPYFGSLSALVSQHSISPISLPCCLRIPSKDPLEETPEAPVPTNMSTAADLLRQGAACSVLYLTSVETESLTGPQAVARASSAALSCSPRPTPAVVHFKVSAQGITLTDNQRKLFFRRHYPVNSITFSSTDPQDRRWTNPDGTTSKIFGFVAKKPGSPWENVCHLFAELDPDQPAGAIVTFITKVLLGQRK
Description: mitochondrial targeting and recruitment assay; NIH3T3 cells co-expressing an mCherry- and cBAK-tagged bait at mitochondria with a GFP-tagged partner; co-localisation at mitochondria by fluorescence microscopy.

The target of experiment [1] is T2, mCh-tensin3-FL-cBAK (human) (UniProt Q68CZ2).
T2 sequence: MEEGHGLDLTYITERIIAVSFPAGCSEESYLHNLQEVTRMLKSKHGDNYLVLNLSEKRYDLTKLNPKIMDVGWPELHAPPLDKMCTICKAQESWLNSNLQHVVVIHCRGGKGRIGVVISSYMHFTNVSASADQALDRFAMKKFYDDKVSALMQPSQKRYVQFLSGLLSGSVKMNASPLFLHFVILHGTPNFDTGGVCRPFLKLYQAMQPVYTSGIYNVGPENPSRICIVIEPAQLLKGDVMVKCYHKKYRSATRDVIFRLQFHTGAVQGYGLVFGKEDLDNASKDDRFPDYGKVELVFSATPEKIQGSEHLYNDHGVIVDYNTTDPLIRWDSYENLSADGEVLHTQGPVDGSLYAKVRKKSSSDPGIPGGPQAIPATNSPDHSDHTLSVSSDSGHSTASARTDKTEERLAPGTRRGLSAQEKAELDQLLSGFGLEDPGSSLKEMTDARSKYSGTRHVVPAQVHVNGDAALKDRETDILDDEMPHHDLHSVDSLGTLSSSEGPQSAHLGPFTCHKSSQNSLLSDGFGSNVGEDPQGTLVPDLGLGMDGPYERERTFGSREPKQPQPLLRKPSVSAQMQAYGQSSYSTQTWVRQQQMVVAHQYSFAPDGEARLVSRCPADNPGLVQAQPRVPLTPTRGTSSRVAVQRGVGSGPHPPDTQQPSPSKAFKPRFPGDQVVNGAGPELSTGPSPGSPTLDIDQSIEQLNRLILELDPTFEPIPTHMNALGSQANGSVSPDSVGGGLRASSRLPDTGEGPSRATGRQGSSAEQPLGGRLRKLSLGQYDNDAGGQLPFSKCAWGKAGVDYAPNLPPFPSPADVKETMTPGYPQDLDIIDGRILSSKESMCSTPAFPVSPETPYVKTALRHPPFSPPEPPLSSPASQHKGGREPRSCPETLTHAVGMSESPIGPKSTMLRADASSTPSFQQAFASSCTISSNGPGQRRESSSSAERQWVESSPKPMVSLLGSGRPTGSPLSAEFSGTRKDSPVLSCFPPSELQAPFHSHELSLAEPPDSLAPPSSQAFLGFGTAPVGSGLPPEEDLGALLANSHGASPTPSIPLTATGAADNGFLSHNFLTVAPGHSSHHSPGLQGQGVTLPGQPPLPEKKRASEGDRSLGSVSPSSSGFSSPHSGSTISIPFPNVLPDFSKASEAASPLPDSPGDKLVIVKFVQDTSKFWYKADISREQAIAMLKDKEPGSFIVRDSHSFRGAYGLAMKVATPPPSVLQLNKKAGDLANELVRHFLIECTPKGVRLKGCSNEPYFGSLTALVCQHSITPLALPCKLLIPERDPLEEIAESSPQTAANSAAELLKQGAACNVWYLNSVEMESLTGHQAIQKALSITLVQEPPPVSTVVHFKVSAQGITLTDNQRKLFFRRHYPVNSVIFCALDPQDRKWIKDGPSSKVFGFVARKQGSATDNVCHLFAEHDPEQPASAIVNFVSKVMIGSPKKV
The description is as above.

The target of experiment [2] is T2, mCh-tensin3-FL-cBAK (human). Description: mitochondrial targeting and recruitment assay; NIH3T3 cells expressing an mCherry- and cBAK-tagged tensin at mitochondria; endogenous partner immunostained.
For experiment [3] the target is unchanged. Put plainly: mitochondrial targeting and recruitment assay; vinculin knock-out MEFs expressing mCh-tensin3-FL-cBAK; endogenous talin immunostained.

No constants are given. Whether binding was seen depends on the method and setting. Some entries that bind do so weakly or less than the wild type. For part of these data: Sequences can lack the tags named with a protein.

GFP-FAK (from UniProt Q05397 1-1052): the binding result in the experiment with mCh-tensin2-cBAK (human) is recorded as “no binding”; in experiment [1] it was “binds”.

In the case of GFP-ILK (from UniProt Q13418 1-452), the binding entry (with mCh-tensin2-cBAK (human); in experiment [1]) was “binds” in each case.

As to “GFP-paxillin (from UniProt P49023 1-591)”, the binding result (in the experiment with mCh-tensin2-cBAK (human); in experiment [1]) was “binds” throughout.

GFP-talin1 (from UniProt P26039 1-2541): the values for the binding result (with mCh-tensin2-cBAK (human); in experiment [1]) were “no binding” and “binds”, respectively.

GFP-talin2 (from UniProt Q9Y4G6 1-2542): the results for the binding entry (in the experiment with mCh-tensin2-cBAK (human); in experiment [1]) were “no binding” and “binds”, respectively.

Take “endogenous paxillin (from UniProt Q8VI36 1-591)”: the binding entry in experiment [2] is given as “binds”.

Regarding “endogenous talin1 (from UniProt P26039 1-2541)”, the binding entry in experiment [3] and in experiment [2] was “binds” throughout.

B1: GFP-KANK2 (protein, UniProt Q63ZY3 1-851)
chain: MAQVLHVPAPFPGTPGPASPPAFPAKDPDPPYSVETPYGYRLDLDFLKYVDDIEKGHTLRRVAVQRRPRLSSLPRGPGSWWTSTESLCSNASGDSRHSAYSYCGRGFYPQYGALETRGGFNPRVERTLLDARRRLEDQAATPTGLGSLTPSAAGSTASLVGVGLPPPTPRSSGLSTPVPPSAGHLAHVREQMAGALRKLRQLEEQVKLIPVLQVKLSVLQEEKRQLTVQLKSQKFLGHPTAGRGRSELCLDLPDPPEDPVALETRSVGTWVRERDLGMPDGEAALAAKVAVLETQLKKALQELQAAQARQADPQPQAWPPPDSPVRVDTVRVVEGPREVEVVASTAAGAPAQRAQSLEPYGTGLRALAMPGRPESPPVFRSQEVVETMCPVPAAATSNVHMVKKISITERSCDGAAGLPEVPAESSSSPPGSEVASLTQPEKSTGRVPTQEPTHREPTRQAASQESEEAGGTGGPPAGVRSIMKRKEEVADPTAHRRSLQFVGVNGGYESSSEDSSTAENISDNDSTENEAPEPRERVPSVAEAPQLRPAGTAAAKTSRQECQLSRESQHIPTAEGASGSNTEEEIRMELSPDLISACLALEKYLDNPNALTERELKVAYTTVLQEWLRLACRSDAHPELVRRHLVTFRAMSARLLDYVVNIADSNGNTALHYSVSHANFPVVQQLLDSGVCKVDKQNRAGYSPIMLTALATLKTQDDIETVLQLFRLGNINAKASQAGQTALMLAVSHGRVDVVKALLACEADVNVQDDDGSTALMCACEHGHKEIAGLLLAVPSCDISLTDRDGSTALMVALDAGQSEIASMLYSRMNIKCSFAPMSDDESPTSSSAEE
Take B1: the figures for the binding result (with mCh-tensin2-cBAK (human); in experiment [1]) were “no binding” and “binds”, respectively.
